# In PubChem BioAssay AID1508642 (National Center for Advancing Translational Sciences (NCATS), 2021):
# In all, about 43,000 compounds went through this assay and about 200 (0.47%) were called active. Another 12% or so got no clear call; they are omitted. Calls follow the shape of the dose curve; as a rule, active = well fitted cell-killing curve with a large enough effect; inconclusive = small, poorly fitted or top-dose-only effect, or effect the other way; inactive = flat fitted curve, though single readings scatter. The list shows a part of the results.
# Experiment: Cell viability qHTS assay in S16 Pmp22-F2sN cells; also: nearly all actives have a fitted effect of over 65% in size
# Settings: S16 Pmp22-F2sN Schwann cells (luciferase reporters placed in the Pmp22 gene) viability, CellTiter-Glo, 24 h; series mostly up to 57.5 µM; activity change, negative = cytotoxicity: at the top concentration
# Outline: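 Rat S16 Schwann reporter line, 24 h treatment with library compounds delivered at 23 nL per well. Cell viability by CellTiter-Glo luminescence.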
# % is scaled to controls: 0 for no effect and ±100 for the full control effect.
row,Structure (SMILES),"activity change, negative = cytotoxicity"
1,CCCCN(C)C(=O)c1ccc2c(c1)NC(=O)C(CC(C)C)N2 (stereo not given),inactive: 0.272%
2,CCN1C(=O)C2(c3ccccc31)c1c(oc3ccccc3c1=O)C(=O)N2CCOC (stereo not given),inactive: 15.9%
3,CCn1c(=O)c2sccc2n2c(CCCC(=O)Nc3ccc(Oc4ccccc4)cc3)nnc12,inactive: 26.6%
4,CCOc1ccccc1CNC(=O)CN1C(=O)c2cccnc2Oc2ccc(C)cc21,inactive: 3.82%
5,O=C(Nc1ccc(Br)cc1)c1cc(S(=O)(=O)N2CCc3ccccc32)ccc1F,inactive: -20.3%
6,Cc1ccc(-c2nc(-c3cccs3)c(-c3cccs3)[nH]2)cc1,inactive: 2.54%
7,Cc1ccc(OCCSc2nc3ccccc3n2CCC(=O)O)cc1,inactive: 2.87%
8,CN(Cc1ccccc1)c1nc2c(S(=O)(=O)c3ccccc3)nnn2c2ccsc12,inactive: 17.8%
9,Cc1c(C(=O)Nc2ccccc2F)sc2nc3n(c(=O)c12)CCC3,inactive: -2.47%
10,Cc1cc(C)cc(OCC(=O)N(Cc2ccco2)Cc2ccccc2Cl)c1,inactive: -10.5%
11,Cc1ccc(NC(=O)c2nc(S(C)(=O)=O)ncc2N(Cc2ccco2)Cc2ccco2)cc1,inactive: -4.81%
12,O=C(Nc1ccccc1)c1ccc(Cl)c(S(=O)(=O)Nc2ccccc2)c1,inactive: -7.94%
13,Cc1ccc(C(=O)c2cn(Cc3ccccc3)c3c(F)cc(F)cc3c2=O)cc1,inactive: -4.52%
14,CCS(=O)(=O)N1CCC2(CC1)OC(=O)C(C)=C2C(=O)NCc1ccc(OC)c(OC)c1,inactive: -5.52%
15,CCOc1ccccc1CNC(=O)CN1C(=O)c2cccnc2Oc2ccc(Cl)cc21,inactive: -17.4%
16,COc1ccc(S(=O)(=O)N2CCCCC2)cc1C(=O)NC1CCS(=O)(=O)C1 (stereo not given),inactive: -6.71%
17,Cn1c(=O)c(=O)n(C)c2cc(N3CCCC3)c(NC(=O)c3ccccc3Cl)cc21,inactive: 3.03%
18,COc1ccc(N2CCN(C(=O)c3cn(C)c4ccc(S(=O)(=O)N5CCOCC5)cc4c3=O)CC2)cc1,inactive: -2.19%
19,Cc1cc(Nc2cccc(Cl)c2)nc2ccc(NC(=O)Cc3c(F)cccc3Cl)cc12,inactive: -0.999%
20,CCC1Oc2ccccc2N(CC(=O)NCc2ccccc2)C1=O (stereo not given),inactive: 16.3%
21,Cc1cc2oc(C(=O)Nc3sc4c(c3C(=O)NCC3CCCO3)CCCC4)cc(=O)c2cc1C (stereo not given),inactive: 1.49%
22,CCS(=O)(=O)N1CCc2cc(C(=O)Nc3cc(C)cc(C)c3)ccc21,inactive: 18.1%
23,COC(=O)c1ccc2c(c1)N(CC(=O)Nc1ccc(C)c(C)c1)C(=O)c1ccccc1S2,inactive: 17%
24,Cc1ccc(C)c(N2CCN(C(=O)NCc3noc4ccccc34)CC2)c1,inactive: 1.51%

row,Structure (SMILES),"activity change, negative = cytotoxicity"
1,COc1ccc(OC)c(CCNc2nc3cc(OC)c(OC)cc3c3nc(-c4cccnc4)nn23)c1,inactive: 2.36%
2,CCCCN(CC)CCNC(=O)CN1C(=O)COc2ccc(S(=O)(=O)N3CCOCC3)cc21,inactive: -0.169%
3,COc1ccc(CCNC(=O)c2ccc3[nH]c(C)c(C)c3c2)cc1OC,inactive: 2.01%
4,Cn1c(=O)c2c(-c3ccc(Cl)cc3)ccnc2n(C)c1=O,inactive: 17.6%
5,CCN(CC)c1ccc(NC(=O)C(NS(=O)(=O)c2cccs2)C(C)C)c(C)c1 (stereo not given),inactive: 7.68%
6,O=C(OCc1ccccc1F)c1ccc(-c2nnn(Cc3ccccc3)n2)cc1,inactive: 2.55%
7,O=C(Cc1ccccc1)NC1CC(=O)N(c2ccc3c(c2)OCCO3)C1 (stereo not given),inactive: 12.2%
8,Cc1cc2c(cc1S(=O)(=O)CCC(=O)NCc1ccccc1)OCC(=O)N2,inactive: 0.529%
9,COc1ccc(-n2nnnc2C2CCN(S(=O)(=O)c3cccc(Cl)c3C)CC2)cc1,inactive: 15.1%
10,CN(C(=O)c1cnc(N2CCOCC2)c2ccccc12)c1ccccc1F,inactive: 2.33%
11,CCn1nc(-c2ccccc2)c(-c2ccccc2)c(C(=O)Nc2ccccc2C(N)=O)c1=O,inactive: -1.19%
12,O=C(c1cnc(N2CCOCC2)c2ccccc12)N1CCN(c2ccc(F)cc2)CC1,inactive: -15.5%
13,Cc1c(-c2nc(-c3ccc4c(c3)[nH]c(=O)n4C)no2)cccc1[N+](=O)[O-],inactive: 9.7%
14,Cc1cccc(-c2noc(CN(C(C)C)S(=O)(=O)c3ccc(Br)cc3)n2)c1,inactive: -13%
15,Cc1ccc(N2CCN(Cc3nnc(-c4ccc5c(c4)OCO5)o3)CC2)c(C)c1,inactive: 3.16%
16,Cc1cccc(NC(=O)Cn2nc(C)c3nn(-c4ccc(Cl)cc4)c(C)c3c2=O)c1C,inactive: -4.8%
17,COc1ccccc1N1CCN(C(=O)c2ccc3c(c2)N(Cc2ccccc2)C(=O)c2ccccc2S3(=O)=O)CC1,inactive: -7.09%
18,COc1ccc(-c2cc(C(F)(F)F)n3nc(-c4ccc(Cl)cc4)cc3n2)cc1OC,inactive: 15.1%
19,COCCNC(=O)CSc1nc2cc3c(cc2c(=O)n1CCCCCC(=O)NCCc1ccc(OC)c(OC)c1)OCO3,inactive: 0.346%
20,O=C1c2ccccc2-c2onc3c(Br)cc(NC4CCCCC4)c1c23,inactive: 2.21%
21,Cc1cccc(N2C(=O)CSC23C(=O)N(CC(=O)NCCc2ccccc2)c2ccccc23)c1 (stereo not given),inactive: -2.37%
22,O=C(CSc1nnc(-c2cccs2)o1)Nc1cccc(C(F)(F)F)c1,inactive: -12.8%
23,CCCCOC(=O)c1ccc(NC(=O)c2ccc3c(c2)CCN3S(=O)(=O)c2ccccc2)cc1,inactive: 25%
24,O=C(Nc1ccc(F)cc1F)c1ccc(-c2ccccc2)s1,inactive: 6.92%

row,Structure (SMILES),"activity change, negative = cytotoxicity"
1,COc1ccc(C2CC(=O)c3cc(-c4nc(-c5cccc([N+](=O)[O-])c5)cs4)c(=O)n(-c4cc(C)cc(C)c4)c3C2)cc1 (stereo not given),inactive: -0.0498%
2,CCOC(=O)CSc1nc2sc3c(c2c(=O)n1CC)CCCC3,inactive: 6.87%
3,O=C(CCCn1c(=O)c2sccc2n(Cc2c(F)cccc2Cl)c1=O)NCc1ccccc1,inactive: 18.3%
4,Cc1cnc2c(c1SCC(=O)N(C)c1ccccc1)c(=O)n(C)c(=O)n2C,inactive: 10.3%
5,Cc1ccc2nc(CSc3nnc(NC(=O)COc4ccccc4F)s3)cc(=O)n2c1,inactive: 8.68%
6,COc1ccc(C)cc1N(CC(=O)N1CCC(C)CC1)S(=O)(=O)c1ccc(C)cc1,inactive: -7.72%
7,Nc1c(C(=O)c2ccc3c(c2)OCO3)sc(Nc2ccccc2F)c1S(=O)(=O)c1ccccc1,inactive: -1.55%
8,CC(=O)c1cccc(NC(=O)Cn2cnc3c2c(=O)n(C)c(=O)n3C)c1,inactive: 2.23%
9,CCOC(=O)c1cccc(NC(=O)Cc2ccc(NC(=O)N3CCCCc4ccccc43)cc2)c1,inactive: -26.2%
10,CCC(=O)N1CCc2cc(Br)cc(S(=O)(=O)N3CCCC(C(=O)Nc4ccc(CC)cc4)C3)c21 (stereo not given),inactive: 5.41%
11,COc1ccc(-n2c(CCC(=O)O)ccc2-c2ccccc2)cc1,inactive: 3.45%
12,CCOc1ccccc1CNS(=O)(=O)c1cnc(N)nc1,inactive: 17.7%
13,COc1ccccc1Cn1c(CNS(=O)(=O)c2ccc(Cl)s2)nc2cccnc21,inactive: -23.5%
14,Cc1nnc(N2CCN(c3ccccc3)CC2)c2c1nnn2Cc1ccc(F)cc1,inactive: 4.62%
15,CCOC(=O)c1[nH]c(C)c(CCC(=O)N2CCN(c3cc(Cl)ccc3C)CC2)c1C,inactive: -7.36%
16,O=C1Nc2c(c(=O)[nH]c(=O)n2-c2ccc(Cl)cc2)C1(NS(=O)(=O)c1ccccc1)C(F)(F)F (stereo not given),inactive: 6.06%
17,Cc1ccc(C)c(NC(=O)CCn2cnnn2)c1,inactive: 0.63%
18,COc1ccc(Cn2c(=O)c3oc4ccccc4c3n(CC(=O)Nc3cc(C)cc(C)c3)c2=O)cc1,inactive: 5.64%
19,Cc1c2cnn(CC(=O)NCCc3ccccc3)c(=O)c2c(C)n1Cc1ccccc1Cl,inactive: 6.63%
20,CCC1CCCCN1CCCNC(=O)c1ccc2c(c1)N(Cc1cccc(C)c1)C(=O)c1ccccc1S2(=O)=O (stereo not given),inactive: -11.1%
21,O=C(NCc1ccccc1Cl)C(=O)NCC(c1ccco1)S(=O)(=O)c1cccs1 (stereo not given),inactive: -12.9%
22,COc1ccccc1CNC(=O)C1CCN(c2nn3c(=O)cc(C)nc3s2)CC1,inactive: -1.85%
23,O=C(COc1ccccc1F)NC1CC(=O)N(c2ccc3c(c2)OCCO3)C1 (stereo not given),inactive: -4.69%
24,Cc1ccc(-c2nc3ccc(Br)cn3c2Nc2ccc3c(c2)OCO3)o1,inactive: 3.59%

row,Structure (SMILES),"activity change, negative = cytotoxicity"
1,CCc1ccccc1NC(=O)CSc1nc2c(oc3ccccc32)c(=O)n1-c1ccccc1,inactive: 2.76%
2,COc1ccc(/C=C(\C#N)c2nc(-c3ccc(Cl)c(Cl)c3)cs2)cc1OC,inactive: 18.6%
3,COc1cc(C(=O)NCC(c2ccc(N(C)C)cc2)N2CCCC2)cc(OC)c1OC (stereo not given),inactive: 2.44%
4,CCOc1ccc(NC(=O)CSc2nc3nc(C)c(Cc4ccccc4)c(C)n3n2)cc1,inactive: 11.4%
5,CC(=O)c1ccc(NC(=O)CN2C(=O)c3cccnc3Sc3ccccc32)cc1,inactive: -6.22%
6,CCc1ccc(NC(=O)CSc2nc(=O)n(Cc3cccnc3)c3c2CCC3)cc1,inactive: 1.27%
7,CCOc1ccc(NC(=O)CN2C(=O)CCSc3ccc(S(=O)(=O)N4CCCC4)cc32)cc1,inactive: 5.6%
8,O=C(NCC(c1cccnc1)N1CCOCC1)C(=O)Nc1cccc(Cl)c1 (stereo not given),inactive: -18.6%
9,COC(=O)c1ccc(NC(=O)N2CCc3c([nH]c4ccccc34)C2c2ccc(C)cc2)cc1 (stereo not given),inactive: 5.78%
10,Cc1ccc(C)c(N2CCN(C(=O)C(C)n3nc(C)c4sc5ccccc5c4c3=O)CC2)c1 (stereo not given),inactive: -2.27%
11,COc1cccc(CNC(=O)c2cc(-c3cccs3)nc3ccccc23)c1,inactive: 6.9%
12,COCCCNC(=O)CSc1nc2nc(C)c(Cc3ccccc3Cl)c(C)n2n1,inactive: 18.3%
13,COC(=O)c1ccc(NC(=O)CC2C(=O)N(c3ccccc3)C(=O)N2C2CCCC2)cc1 (stereo not given),inactive: 3.98%
14,COc1ccc(CC(=O)N2CC(=O)Nc3ccc(Br)cc3C2c2ccc(F)cc2)cc1OC (stereo not given),inactive: -23%
15,COc1cc2nc(NCc3ccccc3Cl)n3nc(-c4cccnc4)nc3c2cc1OC,inactive: 14.7%
16,COc1ccc(Cn2c(C(=O)O)c(CNC3CCC(C)CC3)c3ccc(C)cc32)cc1 (stereo not given),inactive: -29.1%
17,COc1cc(C(=O)N2CCC(c3ccncc3)CC2)cc(OC)c1OC,inactive: -12.2%
18,Cc1cccc(-n2c(SCC(=O)Nc3ccccc3Cl)nc3n[nH]c(C)c3c2=N)c1,inactive: -23.8%
19,COc1cccc(C(=O)Nc2ccc3nc(SCc4ccc(C)cc4)sc3c2)c1,inactive: 4.69%
20,Cn1nc(-c2ccccc2)c(-c2ccccc2)c(C(=O)Nc2ccc(S(N)(=O)=O)cc2)c1=O,inactive: -1.37%
21,COc1ccc(NC(=O)c2c(NCc3cccc(OC)c3)sc3c2CCC3)cc1,inactive: -0.328%
22,Cc1cccc(Nc2ncnc3c2cnn3C)c1C,inactive: -3.2%
23,COc1ccc(C)c2sc(N(Cc3cccnc3)C(=O)COc3ccccc3)nc12,inactive: -3.7%
